Hit rate of the full screen: of about 350,000 compounds, about 9,900 (2.8%) were called active. The inconclusive results got no clear call from the source; some entries with a clear call stand among them for comparison. The call rests on the fitted dose curve; in most records, active means well fitted activation curve with a large enough effect; inconclusive means small, poorly fitted or top-dose-only effect; inactive means no such curve, though single readings can be large or run the other way. No potency is given beside an inconclusive call; the fits are too rough.
Test: A quantitative high throughput screen for small molecules that induce DNA re-replication in MCF 10a normal breast cells. Further: nearly all actives have a fitted effect of over 50% in size.
Settings: MCF 10A DNA re-replication, Hoechst nuclear intensity, 48 h; series mostly up to 46.1 µM
Potency means the concentration at half of the fitted maximal effect; tags describe the fitted curve by direction and shape.

Structure (SMILES)	Potency
CN(CCC#N)C(=O)COC(=O)c1ccccc1C(=O)c1ccc(Cl)c([N+](=O)[O-])c1	active: 9.2 µM
COc1cc(O)c(C(CC(=O)N2CCCCC2)c2ccc3c(c2)OCO3)c(OC)c1 (stereo unspecified)	inactive
Cn1c(N)c(C(=O)COC(=O)c2ccc(-c3ccccc3)cc2)c(=O)n(C)c1=O	inconclusive [activator, full curve]
O=C(Cc1cccs1)N=Nc1c(O)[nH]c2ccccc12	inactive
CCOC(=O)N1CCC(NC(=O)c2ccc(CS(=O)c3cccc(Cl)c3)o2)CC1 (stereo unspecified)	inconclusive [activator, single point]
CN(C)c1nc(NCc2ccccc2)nc(SCC(=O)Nc2ccc(Cl)c(Cl)c2)n1	inconclusive [activator, single point]
CC12CCC(=O)C=C1CCC1C2C(O)CC2(C)C(c3csc(N)n3)CCC12 (stereo unspecified)	inconclusive [activator, single point]
CN(Cc1ccccc1)c1nc(CN2CCOCC2)nc2scc(-c3ccccc3)c12	inconclusive [activator, single point]
N#C/C(=C(/O)CN1CCCC1)c1nc(-c2ccccc2)cs1	inactive
CCn1c(=O)c([N+](=O)[O-])c(N2CCSCC2)c2ccccc21	inconclusive [activator, full curve, poor fit]
COc1cc(CCCN[C@H](CN)Cc2ccccc2)cc(OC)c1OC	inconclusive [activator, full curve, poor fit]
Cc1ccc(NC(=S)N/N=C/c2ccc(Cl)c([N+](=O)[O-])c2)cc1	inconclusive [activator, single point]
CCc1ccc2c(c1)/C(=C/C(=O)c1cccs1)C(=O)N2	inconclusive [activator, partial curve, poor fit]
O=C(Nc1ccccc1)C1=C[C@@H](c2csc3ccccc23)C[C@@H](OCc2ccc(CO)cc2)O1	inconclusive [activator, single point]
O=[N+]([O-])c1ccc(-c2nc(Nc3cccc(O)c3)c3ccccc3n2)cc1	inconclusive [activator, single point]
CCc1nnc(NC(=O)COc2ccc([N+](=O)[O-])cc2)s1	inconclusive [activator, single point]
Nn1cnnc1SCC(=O)N(C1CCCCC1)C1CCCCC1	inactive
Cc1ccc(C2=Nc3c(ccc4ccccc34)C(c3ccncc3)=NN2)cc1	inconclusive [activator, single point]
COc1cc(C(=O)NCCCCCCNC(=O)c2cc(OC)c(OC)c(OC)c2)cc(OC)c1OC	inconclusive [activator, partial curve, poor fit]
O=C1N=C(N2CCN(c3ccccc3)CC2)S/C1=C\c1ccco1	inactive
Cc1ccc(Cl)cc1N1CCN(Cc2nnnn2C2CCCCC2)CC1	inconclusive [activator, single point]
O=C(CCCCCn1c(=S)[nH]c2ccc(N3CCOCC3)cc2c1=O)NCc1ccccc1Cl	active: 18.4 µM

Structure (SMILES)	Potency
COc1ccc(-c2ccc3c(c2)S(=O)(=O)c2cccc(C(=O)N4CCN(c5c(Cl)cncc5Cl)CC4)c2C3=O)cc1OC	inconclusive [activator, partial curve, poor fit]
CCOc1ccc(C2C(C(=O)c3cccs3)=C(O)C(=O)N2Cc2cccnc2)cc1 (stereo unspecified)	inconclusive [activator, full curve]
CC(=O)Nc1ccc(S(=O)(=O)N2CCC(C(=O)O)CC2)cc1	inactive
COc1ccc(/C=C/c2c(-c3ccc(OC)cc3)sc3ccc(N4CCOCC4)cc23)cc1	active: 8.2 µM
CC1(C)CC(=O)C(C=Nc2ccc3[nH]ncc3c2)=C(O)C1	inconclusive [activator, single point]
CCOc1ccc2nc(-c3ccccc3)nc(SCC(=O)OC)c2c1	inconclusive [activator, partial curve, poor fit]
Cc1sc2nc(SCCN(C)C)n(-c3ccccc3)c(=O)c2c1-c1ccc(F)cc1	inconclusive [activator, partial curve, poor fit]
COc1ccc2c(c1OC)C(=O)N1c3cccc(Cl)c3C(=O)OC21 (stereo unspecified)	active: 1.3 µM
COc1ccccc1CCn1c(N)c(C#N)c2nc3ccccc3nc21	inconclusive [activator, partial curve, poor fit]
CC(=O)Nc1ccc(C(=O)COC(=O)C2CC3CCCC(C2)C3=O)cc1 (stereo unspecified)	inactive
Cc1nc2ccc(Br)cn2c1C(=O)N/N=C\c1ccccc1Cl	inconclusive [activator, partial curve, poor fit]
Cc1ccc(C(=O)Oc2ccc(Cl)c3cccnc23)cc1[N+](=O)[O-]	inconclusive [activator, partial curve, poor fit]
O=C(Nc1ccc2c(c1)OCCO2)c1ccc(Br)c(S(=O)(=O)N2CCOCC2)c1	inconclusive [activator, single point]
O=C(CNC(=O)OCc1ccccc1)Oc1ccc2ccc(=O)oc2c1	inconclusive [activator, single point]
COC(=O)c1cccc(C23CC4(C2)[C@H](CN(Cc2ccc(C(F)(F)F)cc2)[C@@H]4c2ccccc2)C3c2ccccc2)c1 (stereo partly specified)	inactive
Cc1cccc(C(=O)NC(=S)NNC(=O)COc2c(C)cccc2C)c1	inconclusive [activator, full curve, poor fit]
O=C(CSc1ccccc1)Nc1nc2ccccc2[nH]1	inconclusive [activator, single point]
CCS(=O)(=O)Nc1ccc(C2=NN(C(=O)c3ccco3)C(c3cccs3)C2)cc1 (stereo unspecified)	inconclusive [activator, partial curve, poor fit]
CC(C)CC(=O)NC(=S)Nc1sc2c(c1C(N)=O)CCC2	inconclusive [activator, single point]
O=c1c(-c2ccnn2-c2cccc(Cl)c2)cnc2n1CCS2	inconclusive [activator, full curve, poor fit]
COc1ccc(CCNC(=O)Cn2ccc3cc(S(=O)(=O)N4CCCC4)ccc32)cc1OC	inactive
O=C(NNC(=O)c1cc(OCC(F)(F)F)ccc1OCC(F)(F)F)c1cccc(C(F)(F)F)c1	inconclusive [activator, partial curve, poor fit]

Structure (SMILES)	Potency
Cc1noc(C)c1CSCC(=O)Nc1cccc(C(F)(F)F)c1	active: 18.4 µM
CCCn1c(=S)[nH]c2cc(C(=O)N3CCCC(C(=O)OCC)C3)ccc2c1=O (stereo unspecified)	inconclusive [activator, partial curve, poor fit]
COc1cccc2c1OCC([C@@H]1C[C@H]3CN(Cc4cccc(Cl)c4)C(=O)[C@]34CCCN14)=C2	inactive
Cc1cc(N2CCCC2)ccc1NC(=O)COc1ccc(Cl)cc1	inactive
Cc1ccc(NC(=O)c2nc[nH]c2C(=O)N2CCN(C(=O)OC(C)(C)C)CC2)cc1	inconclusive [activator, full curve, poor fit]
CC(=O)N1CCC2(CC1)CC(=O)c1cc(OCC(=O)NCc3ccc(C)cc3)ccc1O2	inactive
Cc1cccc(C(=O)c2c(N)sc3c2CCC(C)C3)c1 (stereo unspecified)	inconclusive [activator, single point]
CC1=Nn2c(nnc2-c2cc(-c3ccccc3)n[nH]2)SC1	inactive
C/C(CC(=O)Nc1ccc(Cl)c(Cl)c1)=N\NC(N)=S	inactive
COc1cc(CC(=O)OCC(=O)Nc2sccc2C(N)=O)cc(OC)c1OC	inactive
COc1ccc(C(=O)N2CCN(c3ccc(F)cc3)CC2)cc1S(=O)(=O)NC1CC1	inactive
S=c1[nH]ncn1-c1ccccn1	inconclusive [activator, partial curve, poor fit]
CCOC(=O)C1CCCN(C(=O)c2cc(=O)c3ccccc3o2)C1 (stereo unspecified)	inactive
CC(=O)N1CCN(C(=O)c2ccc(NS(=O)(=O)c3ccc(Cl)c(Cl)c3)cc2)CC1	inconclusive [activator, partial curve]
COc1ccc(-c2cc(-c3c(O)c(OC)c4occc4c3OC)[nH]n2)cc1	inconclusive [activator, single point]
N#CCc1c(C#N)c(N)nc(N2CCN(Cc3ccc4c(c3)OCO4)CC2)c1C#N	active: 16.4 µM
CCN(CC)S(=O)(=O)c1ccc(NC(=O)c2ccc(N(C)S(C)(=O)=O)cc2)cc1	inactive
CC(C)(C)c1ccc(C(=O)Nc2ccccc2NC(=O)c2ccco2)cc1	inconclusive [activator, single point]
O=C1N(Cc2cccc(Cl)c2)C[C@@H]2C[C@@H](c3cccn3-c3cccnc3)N3CCC[C@@]123	inconclusive [activator, partial curve, poor fit]
C/C(=N\NC(=O)COc1ccc2ccccc2c1)c1cccs1	inconclusive [activator, single point]
C=CCn1c(C)cc(C2=NNC(=NCC)SC2)c1C	inconclusive [activator, single point]
CC(C)c1c(C(=O)N/N=C/c2ccc3c(c2)OCO3)nnn1-c1nonc1N	inactive

Source: PubChem BioAssay AID624296 (National Center for Advancing Translational Sciences (NCATS), 2012)
